Laboratory results from PubChem BioAssay AID760 (NMMLSC, 2007).
The whole screen tested about 190,000 compounds, of which about 360 (0.19%) were called active. Inconclusive results, whose numbers are uncertain, are shown with a selection of clear calls.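 The calls were made as follows: active = GTP binding activity at least 20 points away from 100%, either lowered or raised; inconclusive = signal likely due to the compound's own green fluorescence; inactive = the rest.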

biological target: Ras-related protein Rab-2A (Canis lupus familiaris) (UniProt P61105); test: Rab2 wt fluorescent GTP binding changes, either direction – biochemical, dog, bead-based flow cytometry, multiplex, primary screen (AID 760); conditions: GST-Rab2 wt beads, Bodipy-GTP binding, at 10 µM;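 also: 0% = beads with excess unlabeled GTP and 100% = no-compound control corrected for plate trend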

GTP binding activity, active:
COc1cc(SC#N)ccc1N=Cc1c(C)[nH]n(-c2ccc(C)c(C)c2)c1=O 79%, O=C(COC(=O)/C=C/c1cccs1)Nc1ccc2ccccc2c1 76%

GTP binding activity, inconclusive:
CCCCN(CCCC)CC(O)CN1C(=O)NC(C)(C)C1=O (stereo unspecified) 106%, c1ccc(-c2noc(-c3cccc4ccccc34)n2)nc1 92%, O=C(NCC(=O)N(c1cnc2ccccc2c1)C(C(=O)NC1CCCC1)c1ccncc1)c1ccco1 (stereo unspecified) 104%, Cc1nc2ccccc2c2oc(C(=O)Nc3ccc4c(c3)OCCO4)cc12 81%, COc1ccc(Nc2ccccc2C(=O)O)cc1 120%, COc1cc(CNCc2cccs2)ccc1OCc1ccccc1 105%, Cc1nc(-c2cn[nH]c2)c2cc(C)oc2n1 90%, CCOC(=O)N1CCC(NC(=O)c2ccc3nc4ccccc4c(=O)n3c2)CC1 74%, Cc1cc(C)cc(Oc2nc(C(F)(F)F)nc3ccccc23)c1 96%, CCCc1cc(-c2nc(N)ncc2-c2csc(C)n2)c(O)cc1OC 92%, CC(C)CNC(=O)C1CCCN(C(=O)NCc2ccccc2)C1 (stereo unspecified) 97%, Cc1cccc(NS(=O)(=O)c2cc([N+](=O)[O-])ccc2C)n1 97%, COc1ccccc1NC(=O)Cn1c(O)c(N=NC(=O)c2ccccc2O)c2ccccc21 92%, C=CCn1c(=O)c2ccccc2n2c(SCC(=O)NCc3cccs3)nnc12 105%, Cc1cc(N2CCN(C)CC2)nc2ccc(NC(=S)NCc3cccs3)cc12 126%, Nn1c(SCC(=O)Nc2ccc3c(c2)OCO3)nnc1-c1ccncc1 89%, COc1cccc2cc(/C(C)=N/NC(=O)c3ccco3)oc12 91%, Cc1nc2c(N=Nc3ccccc3F)c(N)nn2c(N)c1C#N 84%, COCCCNC(=O)CCCC(=O)NCCCOC 111%, COc1cc(=O)n(C)c2ccccc12 88%, CCOC(=O)CNS(=O)(=O)c1ccc(C(=O)O)cc1 101%, CCN(CC(=O)Nc1ccc(Cl)c(S(=O)(=O)N(C)C)c1)CC(=O)NC(C)C 93%, COc1cnn(-c2ccc(Br)cc2)c(=O)c1SCc1ccccc1 105%, COc1ccc(C)cc1-n1nnnc1SCc1cc(=O)n2cc(C)ccc2n1 99%, Cc1ccc2[nH]c(CCN(C)C)c(CC#N)c2c1 104%, CCN(CC)c1ccc2cc(-c3nc(-c4ccc(OC)cc4)cs3)c(=O)oc2c1 425%, CC1=C(C)CC(C(=O)NNC(=O)c2csc3c2CCC(C(C)(C)C)C3)C(C(=O)O)C1 (stereo unspecified) 94%, O=c1c2ccc([N+](=O)[O-])cc2ncn1Cc1ccccc1C(F)(F)F 64%, COc1cccc(C(=O)Nc2ccc(-c3nc4ccccc4o3)c(O)c2)c1 94%, O=C(O)CCCCCn1c(SCc2cc(=O)n3cc(Cl)ccc3n2)nc2ccsc2c1=O 119%

GTP binding activity, inactive:
C/C(=N/NC(=O)CNS(=O)(=O)c1ccc(C)cc1)c1cccc([N+](=O)[O-])c1 90%, CC(=O)Nc1ccc(C(=O)OCC(=O)NCc2ccc(Cl)cc2)cc1 97%, O=C(O)c1ccc(Cl)c(S(=O)(=O)Nc2cccc(C(=O)Nc3cccc(C(F)(F)F)c3)c2)c1 92%, CC1(C)CC(=O)C2=C(C1)N(c1cccc(Cl)c1)C(=O)NC2(C(F)(F)F)C(F)(F)F 98%, COC(=O)/C(=C/c1ccco1)NC(=O)c1ccco1 101%, COc1cccc(CNC(=O)CN2CCC(c3nc4ccc(C)cc4[nH]3)CC2)c1 96%, COc1ccc(OCC(=O)Nc2ccc3nc(C)sc3c2)cc1 97%, CC(C)(C)NC(=O)CN(CCc1ccccc1)C(=O)c1csnn1 93%, O=C(Cn1c2ccccc2c(=O)c2cc([N+](=O)[O-])ccc21)Nc1ccccc1Cl 105%, CC1=NN(C(=O)c2ccc(Cn3nc(C)cc3C)o2)C(O)(C(F)(F)F)C1 (stereo unspecified) 109%, N#CCCN(C(=O)COc1ccc(Cl)cc1Cl)c1ccccc1 99%, Cc1ccc(S(=O)(=O)N2CCCCC2)cc1NC(=O)COC(=O)c1ccc(O)cc1 97%, CCc1ccc(C2C(C#N)=C(N)C(C#N)(C#N)C3=CCC(C(C)(C)C)CC32)cc1 (stereo unspecified) 100%, CCC(=O)NCCc1nc2ccccc2n1Cc1ccc(C)cc1 92%
